Source: PubChem BioAssay AID296 (DTP/NCI, 2004)
Results filed as inconclusive are left out. The source holds more than one record for some entries. Only these are listed. The source may hold further records. Values that stand side by side are repeated measurements in other runs, samples, wells, individuals or studies. Additions like (4×) count equal records among those shown.

Tested on: MX-1 breast xenograft, nude mice, tumor weight T/C
Assay: NCI In Vivo Anticancer Drug Screen. Data for tumor model Human Mammary Carcinoma MX-1 Xenograft (intrarenal inoculation) in NU/NU Swiss (nude) mice
Conditions: endpoint: mean tumor weight change, higher = larger tumour
Description: The antitumor activity of compounds was measured in mice bearing transplantable tumors. Survival or tumor size were measured and the results are expressed as the measurement made in the treated group (T) divided by the measurement made in the vehicle treated control group (C). The tumor model used in this assay is Human Mammary Carcinoma MX-1 Xenograft (intrarenal inoculation) in NU/NU Swiss (nude) mice

[1] = dose: 600.0 mg/kg/injection, schedule: Q04DX003 (sc), vehicle: Klucel (hydroxypropylcellulose) (HPC)
[2] = dose: 4.0 mg/kg/injection, schedule: Q01DX010 (sc), vehicle: saline
[3] = dose: 8.0 mg/kg/injection, schedule: Q01DX010 (sc), vehicle: saline
[4] = dose: 75.0 mg/kg/injection, schedule: Q04DX003 (sc), vehicle: saline with Tween-80
[5] = dose: 150.0 mg/kg/injection, schedule: Q04DX003 (sc), vehicle: saline with Tween-80
[6] = dose: 300.0 mg/kg/injection, schedule: Q04DX003 (sc), vehicle: saline with Tween-80
[7] = dose: 200.0 mg/kg/injection, schedule: Q01DX010 (sc), vehicle: Klucel (hydroxypropylcellulose) (HPC)
[8] = dose: 100.0 mg/kg/injection, schedule: Q01DX010 (sc), vehicle: Klucel (hydroxypropylcellulose) (HPC)
[9] = dose: 400.0 mg/kg/injection, schedule: Q01DX010 (sc), vehicle: Klucel (hydroxypropylcellulose) (HPC)

## O=C(O)CSc1c(Cl)c(=O)oc2ccc(Cl)cc12
[1]
  T/C: 17 % of control, 29 % of control, 63 % of control

## O=c1[nH]cc(F)c(=O)[nH]1
dose: 20.0 mg/kg/injection, schedule: Q01DX010 (sc), vehicle: saline
  T/C: 26 % of control and 61 % of control
dose: 25.0 mg/kg/injection, schedule: Q04DX003 (sc), vehicle: saline
  T/C: 77 % of control, 108 % of control, 111 % of control

## COc1ccc(S(=O)(=O)N/N=C/C(=O)O)cc1
dose: 25.0 mg/kg/injection, schedule: Q01DX010 (sc), vehicle: saline with Tween-80
  T/C: 56 % of control, 84 % of control, 113 % of control
dose: 50.0 mg/kg/injection, schedule: Q01DX010 (sc), vehicle: saline with Tween-80
  T/C: 35 % of control, 37 % of control, 64 % of control
dose: 100.0 mg/kg/injection, schedule: Q01DX010 (sc), vehicle: saline with Tween-80
  T/C: -16 % of control, 2 % of control, 22 % of control

## Nc1nc([Se])c2ncn(C3OC(CO)C(O)C3O)c2n1 (configuration not stated)
[2]
  T/C: 105 % of control, 113 % of control, 150 % of control
[3]
  T/C: 68 % of control, 160 % of control, 199 % of control
dose: 13.33 mg/kg/injection, schedule: Q04DX003 (sc), vehicle: saline
  T/C: 14 % of control and 104 % of control
dose: 26.65 mg/kg/injection, schedule: Q04DX003 (sc), vehicle: saline
  T/C: 8 % of control and 106 % of control

## CN(C)c1nc(N(C)C)nc(N(C)C)n1
[4]
  T/C: -83 % of control and 46 % of control
[5]
  T/C: -89 % of control, -13 % of control, 19 % of control
[6]
  T/C: -100 % of control (2×) and -55 % of control

## O=[N+]([O-])/C=C\c1ccc2c(c1)OCO2
[7]
  T/C: 102 % of control and 170 % of control

## CC1=CC(=Nc2ccc(N(CCCl)CCCl)cc2)C=C(C)C1=O
dose: 300.0 mg/kg/injection, schedule: Q04DX003 (sc), vehicle: Klucel (hydroxypropylcellulose) (HPC)
  T/C: -100 % of control, -52 % of control, 15 % of control
[1]
  T/C: -100 % of control, -49 % of control, 3 % of control
dose: 1200.0 mg/kg/injection, schedule: Q04DX003 (sc), vehicle: Klucel (hydroxypropylcellulose) (HPC)
  T/C: -100 % of control, -47 % of control, 1 % of control

## COC1C(O)CC(OC2CC(OC3CC(O[C@@H]4C(=O)c5c(cc6cc(OC7CC(OC8CC(O)C(O)C(C)O8)C(O)C(C)O7)c(C)c(O)c6c5O)C[C@H]4[C@H](OC)C(=O)[C@@H](O)[C@@H](C)O)OC(C)C3O)OC(C)C2O)OC1C (some centres not stated)
dose: 0.37 mg/kg/injection, schedule: Q01DX010 (sc), vehicle: saline
  T/C: -47 % of control and 24 % of control
dose: 0.75 mg/kg/injection, schedule: Q01DX010 (sc), vehicle: saline
  T/C: -100 % of control, 11 % of control, 18 % of control
dose: 1.5 mg/kg/injection, schedule: Q01DX010 (sc), vehicle: saline
  T/C: -100 % of control and -63 % of control

## CC1CN1P1(N2CC2C)=NP(N2CC2C)(N2CC2C)=NP(N2CC2C)(N2CC2C)=N1 (configuration not stated)
dose: 75.0 mg/kg/injection, schedule: Q04DX003 (sc), vehicle: saline
  T/C: 27 % of control and 60 % of control

## CC(=O)O[C@H]1C(=O)[C@@]2(C)[C@H]([C@H](OC(=O)c3ccccc3)[C@]3(O)C[C@H](OC(=O)[C@H](O)[C@@H](NC(=O)c4ccccc4)c4ccccc4)C(C)=C1C3(C)C)[C@]1(OC(C)=O)CO[C@@H]1C[C@@H]2O
dose: 50.0 mg/kg/injection, schedule: Q01DX010 (sc), vehicle: Klucel (hydroxypropylcellulose) (HPC)
  T/C: -15 % of control, 7 % of control, 34 % of control
[8]
  T/C: -77 % of control, 3 % of control, 21 % of control
[7]
  T/C: -67 % of control and 27 % of control

## OC(CBr)C(O)C(O)C(O)CBr (configuration not stated)
dose: 30.0 mg/kg/injection, schedule: Q01DX010 (sc), vehicle: Klucel (hydroxypropylcellulose) (HPC)
  T/C: 3 % of control and 29 % of control
[7]
  T/C: 5 % of control and 50 % of control
[9]
  T/C: -73 % of control and 17 % of control

## O=NN(CCCl)C(=O)NC1[C@H](O)CCC[C@@H]1O (some centres not stated)
dose: 10.0 mg/kg/injection, schedule: Q04DX003 (sc), vehicle: saline
  T/C: -79 % of control, 10 % of control, 45 % of control
dose: 20.0 mg/kg/injection, schedule: Q04DX003 (sc), vehicle: saline
  T/C: -85 % of control and 25 % of control

## C/C=C1\C[C@@H]2C(OC)Nc3cc(O)c(OC)cc3C(=O)N2C1 (some centres not stated)
dose: 2.0 mg/kg/injection, schedule: Q04DX003 (sc), vehicle: saline
  T/C: 30 % of control and 65 % of control
dose: 8.0 mg/kg/injection, schedule: Q04DX003 (sc), vehicle: saline
  T/C: -60 % of control and 18 % of control

## C1OC1CN1CCN(CC2CO2)CC1 (configuration not stated)
[2]
  T/C: 35 % of control and 105 % of control
[3]
  T/C: 15 % of control and 49 % of control

## C1CC[N-]CC1.[Cl][Pt+2][Cl].[NH-]C1CC1
dose: 25.0 mg/kg/injection, schedule: Q04DX003 (sc), vehicle: Klucel (hydroxypropylcellulose) (HPC)
  T/C: 87 % of control and 114 % of control

## COC1=C(N)C(=O)c2nc(-c3nc(C(=O)O)c(C)c(-c4ccc(OC)c(OC)c4O)c3N)ccc2C1=O
dose: 0.25 mg/kg/injection, schedule: Q01DX010 (sc), vehicle: saline
  T/C: -67 % of control and -24 % of control

## CC(=O)[O][Pb]([O]C(C)=O)([c]1ccccc1)[c]1ccccc1
[7]
  T/C: 52 % of control, 67 % of control, 97 % of control
[9]
  T/C: -100 % of control and 96 % of control

## CC(C)NC(=O)N(CCCCBr)N=O
dose: 150.0 mg/kg/injection, schedule: Q04DX003 (sc), vehicle: Klucel (hydroxypropylcellulose) (HPC)
  T/C: 20 % of control and 61 % of control
[1]
  T/C: -14 % of control and 19 % of control

## NC1=NCN(C2OC(CO)C(O)C2O)C(=O)N1 (configuration not stated)
dose: 50.0 mg/kg/injection, schedule: Q04DX003 (sc), vehicle: saline
  T/C: 38 % of control and 121 % of control

## C(CC1CO1)C1CO1 (configuration not stated)
dose: 25.0 mg/kg/injection, schedule: Q01DX010 (sc), vehicle: saline
  T/C: 69 % of control and 95 % of control
dose: 50.0 mg/kg/injection, schedule: Q01DX010 (sc), vehicle: saline
  T/C: 24 % of control and 56 % of control
dose: 75.0 mg/kg/injection, schedule: Q04DX003 (sc), vehicle: suspension in saline
  T/C: 32 % of control and 58 % of control

## C=C1C(C)C2C(Cc3ccccc3)NC(=O)C23C(OC(C)=O)/C=C/C(C)(O)CC(C)C/C=C/C3C1O (configuration not stated)
dose: 6.25 mg/kg/injection, schedule: Q04DX003 (sc), vehicle: Klucel (hydroxypropylcellulose) (HPC)
  T/C: 74 % of control and 110 % of control

## COc1cccc2c1C(=O)c1c(O)c3c(c(O)c1C2=O)C[C@@](O)(/C(C)=N/NC(=O)c1ccc(Cl)cc1)C[C@@H]3OC1CC(N)C(O)C(C)O1 (some centres not stated)
dose: 2.0 mg/kg/injection, schedule: Q01DX010 (sc), vehicle: water
  T/C: 70 % of control and 101 % of control
dose: 8.0 mg/kg/injection, schedule: Q01DX010 (sc), vehicle: water
  T/C: 63 % of control and 101 % of control

## O=C1C(NCCO)=C(N2CC2)C(=O)C(NCCO)=C1N1CC1
dose: 1.0 mg/kg/injection, schedule: Q04DX003 (sc), vehicle: saline
  T/C: 17 % of control and 93 % of control
dose: 4.0 mg/kg/injection, schedule: Q04DX003 (sc), vehicle: saline
  T/C: -69 % of control and 1 % of control

## COc1cccc2c1C(=O)c1c(O)c3c(c(O)c1C2=O)C[C@@](O)(C(C)=O)C[C@@H]3OC1CC(N)C(O)C(C)O1 (some centres not stated)
dose: 2.0 mg/kg/injection, schedule: Q01DX010 (sc), vehicle: saline
  T/C: 93 % of control and 151 % of control

## CCC1(O)CC2CN(CCc3c([nH]c4ccccc34)C(C(=O)OC)(c3cc4c(cc3OC)N(C)C3C(O)(C(N)=O)C(O)C5(CC)C=CCN6CCC43C65)C2)C1 (configuration not stated) (tested in a mixture with another compound)
dose: 3.0 mg/kg/injection, schedule: Q04DX003 (sc), vehicle: water
  T/C: -100 % of control, -6 % of control, -1 % of control

## Cc1ccc(S(=O)(=O)N/N=C/C(=O)O)cc1
[8]
  T/C: 87 % of control and 117 % of control
[7]
  T/C: 50 % of control and 91 % of control

## O=C(O)c1c2c(nc3ccccc13)Cc1ccccc1-2
dose: 50.0 mg/kg/injection, schedule: Q01DX010 (sc), vehicle: water
  T/C: 68 % of control and 198 % of control
dose: 100.0 mg/kg/injection, schedule: Q01DX010 (sc), vehicle: water
  T/C: 29 % of control and 178 % of control

## CCOC(=O)C(CC(C)C)NC(=O)C(Cc1ccc(N(CCCl)CCCl)cc1)NC(C)=O (configuration not stated)
[4]
  T/C: -99 % of control, 1 % of control, 22 % of control
[5]
  T/C: -98 % of control, -66 % of control, -37 % of control
[6]
  T/C: -99 % of control, -94 % of control, -69 % of control
